Laboratory results from the supplement of paper PMC5499739.
In all, about 16,000 sequences were measured (“Z-score”: median about -0.37, highest 2% from about 3.1 on). Some of the results follow.

What follows are sequences tested on RBM10 RRM1-ZnF-RRM2 (GST-tagged construct) (assay: RNAcompete 7-mer binding Z-score; higher = stronger binding preference).
Procedure, shortened: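 Each heptamer motif was given a one-sided Z-score for enrichment across the probes that contained it. GST-tagged RBM10 constructs (20 pmol) were combined with 1.5 nmol of a designed pool of 241 399 RNAs of up to 41 nt, transcribed from microarray-derived DNA templates. Binding took place in 1 ml Hepes pH 7.8 buffer containing KCl, NaCl, glycerol, DTT, BSA and glutathione Sepharose beads for 30 min at 4°C. After four 2-min washes at 4°C, bound RNA was identified by microarray hybridisation.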

| Sequence | RNAcompete 7-mer binding Z-score |
| --- | --- |
| CCGCUCU | -0.814 |
| CUCUGGC | -0.785 |
| CCUAGAA | -0.799 |
| CAUAUUA | -0.486 |
| CAUAGGA | 0.756 |
| ACGAGUA | 0.443 |
| GAGGCAU | 1.03 |
| GGAGAUU | 1.07 |
| UGAGGAG | 1.94 |
| GUCUCAA | -0.395 |
| GACUCAA | -0.653 |
| AGGUGGG | 3.44 |
| GACCUAA | -0.901 |
| CCGGGGG | 1.4 |
| GUUAACA | 0.232 |
| GACAUAC | -0.202 |
| UGCCGUC | -0.719 |
| UCCCUGG | -0.391 |
| CUACGGC | -0.417 |
| GUAUCCA | -0.122 |
| CCGCGGG | 0.814 |
| GACCUGC | -0.945 |
| GGAGGGA | 3.6 |

| Sequence | RNAcompete 7-mer binding Z-score |
| --- | --- |
| AUUACAU | -0.431 |
| GGAAGUU | 1.2 |
| UUGGGCU | 1.19 |
| CCACCCC | -0.643 |
| ACCACAA | -0.511 |
| AAGAUGC | -0.129 |
| GCACGGA | 0.942 |
| AUUGAUA | -0.216 |
| UAGAGGA | 1.54 |
| UCGCUCG | -0.486 |
| CGCAACA | -0.468 |
| AUCGUUA | -0.621 |
| UUUGAAC | -0.602 |
| ACCUGAC | -0.828 |
| UUCAUCG | -0.777 |
| CUUUUGU | -0.919 |
| GGCGUCA | 0.294 |
| AUCUCGG | -0.57 |
| GCUGUCU | -0.795 |
| CUUUGCU | -0.897 |
| UGGCCAU | -0.18 |
| CCAGGUC | -0.446 |
| AUCAACA | -0.278 |

| Sequence | RNAcompete 7-mer binding Z-score |
| --- | --- |
| GGGUAUA | 2.44 |
| UCAAAAU | -0.541 |
| CGCAACG | -0.0889 |
| GUGACGU | 0.683 |
| GCUUCCC | -0.748 |
| AGUACAC | -0.165 |
| UUACUCC | -0.795 |
| UGAAGCA | 0.246 |
| AACAGUC | -0.526 |
| AAACUCU | -0.876 |
| UCAUAUC | -0.613 |
| CGAAAGG | 1.98 |
| AAUCCCG | -0.657 |
| UAUGAAA | -0.246 |
| UAGUGCA | 0.21 |
| GGGAUGA | 3.59 |
| GUAGUAU | -0.176 |
| UUUUAUC | -0.763 |
| AUGACGC | -0.592 |
| UCUGGGA | 0.45 |
| UUCUUUG | -0.621 |
| CGGUCCC | -0.34 |
| ACUUAGU | -0.479 |

| Sequence | RNAcompete 7-mer binding Z-score |
| --- | --- |
| AAGAUGU | 0.13 |
| UCGCGCC | -0.683 |
| ACAUGAA | 0.101 |
| CUCUGCG | -0.916 |
| GGAUUUG | 0.796 |
| CUGGUGU | 0.0677 |
| CUUCCAG | -0.497 |
| CUUACAC | -0.708 |
| GCCAGAU | -0.318 |
| UCCACCG | -0.635 |
| UUGUCCC | -0.701 |
| GAGUAAC | 0.122 |
| GUGAUAA | 0.261 |
| GUCUUCA | -0.617 |
| CCCGGCG | -0.0925 |
| GAUCUCA | -0.643 |
| UCUUACG | -0.821 |
| CGUUAAU | -0.679 |
| AGCGAGC | 2.66 |
| GAAGCCC | -0.774 |
| GUAUUUG | -0.147 |
| GUCUUGG | -0.144 |
| AUGACAA | -0.0707 |

| Sequence | RNAcompete 7-mer binding Z-score |
| --- | --- |
| GGGUCCA | 0.771 |
| UGUUAAU | -0.617 |
| UAGCCAG | -0.0452 |
| CGGGUGG | 3.24 |
| CUAUCAU | -0.675 |
| ACUCACG | -0.708 |
| CAGGGAC | 1.6 |
| UCCACAA | -0.508 |
| UGACUGG | 0.887 |
| ACCUGAU | -0.938 |
| AUAUCGG | 0.264 |
| GGACGCC | -0.154 |
| GUUUCAG | -0.169 |
| AGUGCAU | 0.104 |
| ACAAGUC | -0.643 |
| UCAAGUC | -0.395 |
| UUGGCUC | -0.526 |
| CGAGCUA | -0.14 |
| UUGAAAC | -0.566 |
| CGGAGCG | 1.45 |
| AUUGGGA | 2.99 |
| GCGUAAA | 0.111 |
| UUAUACU | -0.69 |

| Sequence | RNAcompete 7-mer binding Z-score |
| --- | --- |
| AUUAGCC | -0.777 |
| UAGCUGC | -0.595 |
| CCCUCAA | -0.737 |
| UUACCCU | -0.846 |
| AACCCUG | -0.639 |
| CGUAUGG | 1.12 |
| UCAUCGA | -0.675 |
| GUGGCCU | -0.0998 |
| AGACUAA | -0.296 |
| UCGGCAA | 0.144 |
| ACAGGAA | 1.47 |
| CAAUUGA | -0.158 |
| GCUUCCU | -0.741 |
| UCUGGGG | 0.894 |
| GCAGCUA | -0.195 |
| ACUGUCG | -0.643 |
| AAGGGCA | 3.44 |
| AGGAAAU | 1.45 |
| CAGGUAG | 2.68 |
| GGUCCAA | 0.239 |
| AGGGUGU | 3.03 |
| CACAUAG | -0.147 |
| UAACUGG | 0.294 |

| Sequence | RNAcompete 7-mer binding Z-score |
| --- | --- |
| CAUGGGU | 2.58 |
| CAGAUCA | -0.417 |
| UCACACC | -0.77 |
| CUGGUAU | -0.3 |
| AGACCUU | -1.19 |
| ACAAAUU | -0.646 |
| CCUCAUC | -0.81 |
| GAUCCGU | -0.639 |
| GGGCUUA | 0.479 |
| UCAGGAG | 1.03 |
| GAUUUGG | 1.47 |
| CGUCCGG | -0.475 |
| CGCGGCA | -0.0925 |
| UUUACCG | -0.675 |
| AACCAUG | -0.0598 |
| UUACCGG | -0.0561 |
| UUAUGGG | 1.64 |
| GGGCCAA | 0.818 |
| CUAGCUG | -0.61 |
| UGGGAUG | 3.22 |
| CCGGUCC | -0.679 |
| GCGGACU | 0.213 |
| AACCUUA | -0.799 |

| Sequence | RNAcompete 7-mer binding Z-score |
| --- | --- |
| GGUAUCA | 1.17 |
| CAGUGUU | -0.526 |
| AAGCUAC | -0.326 |
| UACAGGG | 2.34 |
| AGAAAAA | 0.162 |
| CCCAUAA | -0.81 |
| CGAUCGU | -0.541 |
| AAUAGUG | 0.315 |
| GGCUAAU | 0.115 |
| GAACGAC | -0.133 |
| GGGCUGU | 0.902 |
| UGUGGGU | 2.9 |
| AGGAGGC | 1.72 |
| AAACCCG | -0.828 |
| CUUCGAG | -0.606 |
| UCGUAGU | -0.318 |
| ACAUACA | -0.398 |
| GAAUUGA | 0.286 |
| GUAUAGG | 2.32 |
| GCGCUUG | -0.559 |
| CGGGCAC | 0.902 |
| CCAUUGU | -0.672 |
